Results published in publication PMC4080450, “The pseudo GTPase CENP-M drives human kinetochore assembly” (eLife, 2014).
No constants are given. Whether binding was seen depends on the method and setting. For part of these data: In cells and extracts the contact can be indirect. Some binding calls cover weakened binding; strength is not graded here.

By UniProt entry, the sequences of proteins in these tests, tags left out. Where a name states a change or a piece, a line headed by the entry shows the natural chain unless it says otherwise. Residues count along the entry.
UniProt Q9NSP4: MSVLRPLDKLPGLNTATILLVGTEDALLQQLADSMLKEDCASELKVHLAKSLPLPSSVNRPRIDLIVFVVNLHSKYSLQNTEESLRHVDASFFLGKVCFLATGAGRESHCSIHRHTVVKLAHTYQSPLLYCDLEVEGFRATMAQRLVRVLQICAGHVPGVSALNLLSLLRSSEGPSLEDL
UniProt Q92674: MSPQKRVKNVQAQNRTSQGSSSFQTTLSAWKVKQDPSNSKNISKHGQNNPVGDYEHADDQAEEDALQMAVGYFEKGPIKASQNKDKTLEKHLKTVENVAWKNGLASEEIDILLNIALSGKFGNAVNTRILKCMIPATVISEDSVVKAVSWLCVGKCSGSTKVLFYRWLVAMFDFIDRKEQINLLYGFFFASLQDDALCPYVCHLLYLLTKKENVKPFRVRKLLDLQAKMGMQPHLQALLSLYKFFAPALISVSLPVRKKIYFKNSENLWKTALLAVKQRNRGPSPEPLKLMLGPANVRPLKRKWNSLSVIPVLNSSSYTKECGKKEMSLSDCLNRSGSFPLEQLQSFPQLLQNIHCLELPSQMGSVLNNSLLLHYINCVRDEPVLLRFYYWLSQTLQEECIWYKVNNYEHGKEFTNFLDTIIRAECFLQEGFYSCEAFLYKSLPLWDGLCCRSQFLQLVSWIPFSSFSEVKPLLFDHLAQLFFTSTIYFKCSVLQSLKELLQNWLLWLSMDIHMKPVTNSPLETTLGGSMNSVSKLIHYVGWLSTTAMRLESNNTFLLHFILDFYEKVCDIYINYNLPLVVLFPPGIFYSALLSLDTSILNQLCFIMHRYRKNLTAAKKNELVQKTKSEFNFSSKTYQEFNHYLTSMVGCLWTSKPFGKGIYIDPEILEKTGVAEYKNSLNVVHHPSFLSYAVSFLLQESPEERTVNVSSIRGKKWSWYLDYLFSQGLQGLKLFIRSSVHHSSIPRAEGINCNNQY
CENP-I^57–C (of the CENP-HI^57–CKM complex): residues 57-756 of Q92674
His-CENP-I^57–281: residues 57-281 of Q92674
CENP-C construct 509–760 (Q03188, residues 509-760): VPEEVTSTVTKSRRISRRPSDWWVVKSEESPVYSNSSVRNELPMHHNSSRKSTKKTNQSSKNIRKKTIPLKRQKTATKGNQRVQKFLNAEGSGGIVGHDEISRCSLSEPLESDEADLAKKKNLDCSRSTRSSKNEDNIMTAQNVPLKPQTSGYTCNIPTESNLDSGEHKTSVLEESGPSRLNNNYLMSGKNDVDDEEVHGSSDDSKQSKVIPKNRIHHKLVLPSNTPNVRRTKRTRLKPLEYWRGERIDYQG
CENP-C construct 631–C-terminus (Q03188, residues 631-943): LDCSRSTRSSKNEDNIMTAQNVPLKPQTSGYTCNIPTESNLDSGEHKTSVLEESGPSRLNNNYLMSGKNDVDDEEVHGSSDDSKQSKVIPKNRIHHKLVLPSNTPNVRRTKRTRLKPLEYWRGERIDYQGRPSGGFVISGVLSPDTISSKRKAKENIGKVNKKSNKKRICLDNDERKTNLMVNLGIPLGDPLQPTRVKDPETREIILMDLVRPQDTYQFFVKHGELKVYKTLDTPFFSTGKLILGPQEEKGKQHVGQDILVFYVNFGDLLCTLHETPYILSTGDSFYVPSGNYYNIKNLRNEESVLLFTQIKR
UniProt Q13352: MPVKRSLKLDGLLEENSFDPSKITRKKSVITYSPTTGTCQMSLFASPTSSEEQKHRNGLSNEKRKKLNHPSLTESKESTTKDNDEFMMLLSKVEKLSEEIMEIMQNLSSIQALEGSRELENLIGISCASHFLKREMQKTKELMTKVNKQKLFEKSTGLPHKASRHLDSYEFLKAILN
UniProt Q9BU64: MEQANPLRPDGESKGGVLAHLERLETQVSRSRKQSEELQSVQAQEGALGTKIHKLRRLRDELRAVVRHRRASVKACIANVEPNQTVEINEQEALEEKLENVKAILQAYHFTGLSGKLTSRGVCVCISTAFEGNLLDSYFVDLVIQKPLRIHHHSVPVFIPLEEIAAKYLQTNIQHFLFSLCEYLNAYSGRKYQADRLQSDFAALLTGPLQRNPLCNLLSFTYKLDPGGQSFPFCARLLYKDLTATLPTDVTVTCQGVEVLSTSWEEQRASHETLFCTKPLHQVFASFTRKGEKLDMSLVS
UniProt Q7L2Z9: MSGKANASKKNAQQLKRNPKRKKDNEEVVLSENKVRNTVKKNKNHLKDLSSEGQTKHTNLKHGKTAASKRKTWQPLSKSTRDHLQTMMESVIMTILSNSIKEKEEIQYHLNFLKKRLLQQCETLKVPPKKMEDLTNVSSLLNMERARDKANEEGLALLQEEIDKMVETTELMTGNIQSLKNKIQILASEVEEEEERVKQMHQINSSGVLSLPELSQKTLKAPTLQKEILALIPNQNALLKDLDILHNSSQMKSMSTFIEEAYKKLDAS
UniProt Q8N2Z9: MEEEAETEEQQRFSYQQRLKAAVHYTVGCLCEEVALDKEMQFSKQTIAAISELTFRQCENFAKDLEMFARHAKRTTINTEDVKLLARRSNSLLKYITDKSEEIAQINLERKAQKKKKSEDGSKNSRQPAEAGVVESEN
UniProt Q9BS16: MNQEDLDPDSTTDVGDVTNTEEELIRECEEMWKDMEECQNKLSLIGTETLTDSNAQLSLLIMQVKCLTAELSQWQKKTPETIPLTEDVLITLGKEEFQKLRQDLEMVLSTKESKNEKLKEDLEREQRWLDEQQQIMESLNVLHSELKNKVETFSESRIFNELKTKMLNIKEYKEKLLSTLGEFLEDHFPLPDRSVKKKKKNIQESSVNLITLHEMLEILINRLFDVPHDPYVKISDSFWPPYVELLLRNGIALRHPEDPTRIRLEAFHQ
UniProt Q9H3R5: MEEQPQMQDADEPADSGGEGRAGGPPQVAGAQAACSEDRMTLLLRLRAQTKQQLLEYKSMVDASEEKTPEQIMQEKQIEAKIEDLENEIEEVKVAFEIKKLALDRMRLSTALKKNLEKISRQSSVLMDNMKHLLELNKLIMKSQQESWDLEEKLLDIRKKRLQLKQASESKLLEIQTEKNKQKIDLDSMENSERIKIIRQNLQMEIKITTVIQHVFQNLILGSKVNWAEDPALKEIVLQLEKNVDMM
UniProt Q9H081: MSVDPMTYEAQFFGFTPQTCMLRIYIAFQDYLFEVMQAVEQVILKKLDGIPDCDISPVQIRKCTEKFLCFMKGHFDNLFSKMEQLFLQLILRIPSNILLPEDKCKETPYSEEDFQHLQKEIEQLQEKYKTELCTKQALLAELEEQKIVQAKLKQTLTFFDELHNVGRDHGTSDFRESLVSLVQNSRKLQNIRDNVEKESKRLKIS

Legend:
[1] = target: GST-CENP-M^L94A–L163E (human) (UniProt Q9NSP4); assay: pull-down; GST-CENP-M (wt or mutant), CENP-I^57–C, CENP-H and His-CENP-K co-expressed in Tnao38 insect cells; cleared lysate on glutathione sepharose, 4°C, 2 hr, 20 mM HEPES pH 7.5, 300 mM NaCl, 1 mM TCEP; SDS-PAGE, Coomassie and western blotting
[2] = target: GFP-CENP-M^L94A+L163E (human) (UniProt Q9NSP4); assay: co-IP; GFP-Trap precipitation from extracts of nocodazole-arrested mitotic HeLa Flp-In T-REx cells expressing GFP-CENP-M fusions; 75 mM HEPES pH 7.5, 150 mM KCl, 0.075% NP-40, benzonase; western blotting
[3] = target: CENP-I^57–C (of the CENP-HI^57–CKM complex) (human) (UniProt Q92674); assay: SEC; subunits co-expressed in insect cells, complex co-purified by the His tag of one subunit and ion exchange, then SEC on Superdex 200 in 150 mM NaCl; both purified
[4] = target: CENP-I^57–C (of the CENP-HI^57–CKM complex) (human) (UniProt Q92674); assay: cross-linking; purified CENP-HI^57–CKM complex cross-linked on lysines (BS2G in the results, isotope-labeled disuccinimidyl suberate in the methods), Lys-C and trypsin digest, LC-MS/MS, xQuest; both purified
GST-CENP-M^wt (human) = GST-CENP-M^wt (human) (UniProt Q9NSP4); assay: pull-down; GST-CENP-M (wt or mutant), CENP-I^57–C, CENP-H and His-CENP-K co-expressed in Tnao38 insect cells; cleared lysate on glutathione sepharose, 4°C, 2 hr, 20 mM HEPES pH 7.5, 300 mM NaCl, 1 mM TCEP; SDS-PAGE, Coomassie and western blotting
CENP-M^1–171 (human) = CENP-M^1–171 (human) (UniProt Q9NSP4); assay: SEC; SEC elution profile of the purified protein alone, with SDS-PAGE of peak fractions; both purified
[5] = target: CENP-C construct 631–C-terminus (UniProt Q03188); assay: SEC; analytical SEC co-elution (Superdex200 5/150 or Superose6 5/150), 4°C; proteins mixed in 50 µl, at least 2 hr on ice; SEC buffer with 300 mM NaCl (proteins not stable in lower NaCl); both purified
[6] = target: CENP-T/CENP-W sub-complex (not phosphorylated) (UniProt Q96BT3); assay: as above
[7] = target: CENP-T/CENP-W sub-complex (phosphorylated by Cdk1) (UniProt Q96BT3); assay: as above
[8] = target: CENP-T/CENP-W/CENP-S/CENP-X complex (UniProt Q96BT3); assay: as above
CENP-R = CENP-R (UniProt Q13352); assay: as above
[9] = target: CENP-O/CENP-P/CENP-Q/CENP-U complex (UniProt Q9BU64); assay: as above
[10] = target: CENP-Q/CENP-U sub-complex (UniProt Q7L2Z9); assay: as above
[11] = target: CENP-O/CENP-P sub-complex (UniProt Q9BU64); assay: as above
[12] = target: CENP-S/CENP-X sub-complex (UniProt Q8N2Z9); assay: as above
CENP-C construct 509–760 = CENP-C construct 509–760 (UniProt Q03188); assay: as above
[13] = target: His-CENP-I^57–281 (human) (UniProt Q92674); assay: SEC; analytical SEC co-elution (Superdex200 5/150 or Superose6 5/150), 4°C; proteins mixed in 50 µl, at least 2 hr on ice; SEC buffer with 150 mM NaCl; both purified
Zwint = target: T1, Zwint (UniProt O95229); assay: as above
T1 sequence: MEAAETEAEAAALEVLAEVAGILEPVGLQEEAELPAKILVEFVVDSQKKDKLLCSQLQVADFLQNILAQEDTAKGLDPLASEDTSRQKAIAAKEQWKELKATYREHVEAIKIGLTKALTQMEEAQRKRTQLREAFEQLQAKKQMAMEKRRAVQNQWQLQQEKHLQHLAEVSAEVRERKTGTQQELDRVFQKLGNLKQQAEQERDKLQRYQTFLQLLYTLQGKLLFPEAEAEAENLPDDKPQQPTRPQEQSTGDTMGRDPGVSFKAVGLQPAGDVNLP

GFP-CENP-M^wt (human) = GFP-CENP-M^wt (human) (UniProt Q9NSP4); assay: co-IP; GFP-Trap precipitation from extracts of nocodazole-arrested mitotic HeLa Flp-In T-REx cells expressing GFP-CENP-M fusions; 75 mM HEPES pH 7.5, 150 mM KCl, 0.075% NP-40, benzonase; western blotting

In the case of His-CENP-K (from UniProt Q9BS16 1-269), the binding [1] is reported as “no binding”.

For “CENP-T/W (endogenous) (from UniProt Q96BT3 1-561; Q5EE01 1-88) (complex)”, the binding [2] was “no binding”.

“CENP-M (of the CENP-HI^57–CKM complex) (from UniProt Q9NSP4 1-180)” was tested, and the binding [3] was “binds” and the binding [4] was “binds”.

For CENP-H (from UniProt Q9H3R5 1-247), the binding [1] was “no binding”, the binding [3] was “binds” and the binding [4] was “binds”.

With “CENP-I^57–C (co-expressed with GST-CENP-M) (from UniProt Q92674 57-756) (domain or fragment)” the binding (GST-CENP-M^wt (human)) was “binds” and the binding [1] was “no binding”.

“Mis12 (endogenous) (from UniProt Q9H081 1-205)” was tested, and the binding [2] was “no binding”.

For “CENP-K (untagged, of the CENP-HI^57–CKM complex) (from UniProt Q9BS16 1-269)”, the binding [3] was “binds” and the binding [4] was “binds”.

“CENP-M^1–171 (from UniProt Q9NSP4 1-171) (domain or fragment)” was tested, and the binding (CENP-M^1–171 (human)) was “no binding”.

For CENP-M (from UniProt Q9NSP4 1-180), the binding [5] was “no binding”, the binding [6] was “no binding” and the binding [7] was “no binding”. For the same substance, the binding [8] was “no binding”, the binding (CENP-R) was “no binding” and the binding [9] was “no binding”. For the same substance, the binding [10] was “no binding”, the binding [11] was “no binding” and the binding [12] was “no binding”. For the same substance, the binding (CENP-C construct 509–760) was “no binding”, the binding [13] was “no binding” and the binding (Zwint) was “no binding”.

For “CENP-I (endogenous) (from UniProt Q92674 1-756)”, the binding (GFP-CENP-M^wt (human)) was “binds” and the binding [2] was “no binding”.
